# Measured values from article PMC6919601, “Identification of Plasmodium dipeptidyl aminopeptidase allosteric inhibitors by high throughput screening” (PLoS ONE, 2019).
# Hit rate of the full screen: of about 110,000 compounds, about 230 (0.21%) showed an effect of 50% or more. The list shows a part of the results.
# Molecular target: DPAP1 (Plasmodium falciparum, UniProt Q8IIJ9)
# Assay: primary screen, percent inhibition; read by cleavage of a fluorogenic dipeptide substrate; higher = more effect of the substance
# Parameters: species or system P. falciparum D10 trophozoite lysates; single well
# Procedure: HTS was performed in black 384-well plates. The first and last two columns of each plate contained our negative (DMSO) and positive (10 μM JCP410) controls, and the 20 central columns the test compounds at 10 μM. Compounds were first diluted 50-fold into assay buffer (50 mM sodium acetate, 5 mM MgCl2, 10 mM β-mercaptoethanol, and 0.1% CHAPS, pH 5.5) from a 10 mM DMSO stock plates. One microliter of this 200 μM intermediate stock plate was dispensed into the assay plate. […] After 30 min, the reaction was quenched with 20 μL of 0.5 M acetic acid, and the fluorescent intensity measured at 523 nm (λex = 492 nm) using an Analyst HT multimode plate reader (Molecular Devices).
# 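Also: 30 min substrate incubation versus DMSO and 10 µM JCP410 controls.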
# Chain of DPAP1 (Q8IIJ9 whole entry, looked up): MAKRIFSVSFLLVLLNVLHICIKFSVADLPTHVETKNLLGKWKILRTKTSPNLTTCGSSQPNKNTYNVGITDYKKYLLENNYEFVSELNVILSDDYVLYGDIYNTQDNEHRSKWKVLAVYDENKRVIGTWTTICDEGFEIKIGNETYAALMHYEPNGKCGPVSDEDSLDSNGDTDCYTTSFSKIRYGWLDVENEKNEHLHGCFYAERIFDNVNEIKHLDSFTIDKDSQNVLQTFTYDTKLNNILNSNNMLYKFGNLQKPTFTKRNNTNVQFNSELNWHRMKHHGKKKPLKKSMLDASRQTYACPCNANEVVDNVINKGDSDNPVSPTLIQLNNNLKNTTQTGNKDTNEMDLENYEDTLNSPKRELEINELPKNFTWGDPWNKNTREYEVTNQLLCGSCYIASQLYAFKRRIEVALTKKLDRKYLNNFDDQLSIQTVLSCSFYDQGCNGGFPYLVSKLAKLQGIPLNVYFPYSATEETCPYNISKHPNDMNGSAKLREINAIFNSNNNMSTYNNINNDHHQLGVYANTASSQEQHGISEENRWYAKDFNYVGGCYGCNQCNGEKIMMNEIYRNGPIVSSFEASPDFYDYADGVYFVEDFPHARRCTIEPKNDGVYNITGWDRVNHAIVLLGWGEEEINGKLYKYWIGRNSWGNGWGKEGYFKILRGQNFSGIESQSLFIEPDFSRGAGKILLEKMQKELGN
row,SMILES,% Inhibition @ 10 uM [%]
1,CCCn1c2ccccc2c2cnn(CC(=O)Nc3nccs3)c(=O)c21,0.244
2,CC1(C)CC(=O)C(/C=N/CCN2CCN(C(=O)NC34CC5CC(CC(C5)C3)C4)CC2)=C(O)C1,4.55
3,CC1(C)CC(=O)C2=C(C1)N=C1c3ccccc3C(=O)C1C2c1ccc(O)c(O)c1 (centres unmarked),0.685
4,O=S(=O)(c1ccc(-c2csc(Nc3cc(Cl)cc(Cl)c3)n2)cc1)N1CCOCC1,3.05
5,CCc1c(C#N)c(SCC(=O)OC)nc2c1CCC2,4.16
6,Cc1ccc(/C=C/C(O)=C2\C(=O)Oc3ccccc3C2=O)c(C)c1,0.238
7,O=C(Cc1ccccc1)NCCCN1CCOCC1,-4.21
8,Cc1cc(C)c(CSc2ncnc3[nH]cnc23)c(C)c1,5.03
9,CCOc1ccc(C(=O)Nc2cccc(Br)c2)cc1,4
10,Cc1ccccc1OCCCCCN1CCCCC1,-1.25
11,CCOC(=O)c1c(C)[nH]c(C)c1S(=O)(=O)NCC(=O)N(C)Cc1ccccc1,2.24
12,COc1ccc(-c2noc(CCCOc3ccc(Cl)cc3Cl)n2)cc1,3.66
13,COC(=O)c1n[nH]c(N)n1,-1.6
14,N#CCc1ccc(NC(=O)CN(c2ccc(Cl)cc2Cl)S(=O)(=O)c2ccccc2)cc1,-2.65
15,Brc1ccc(-c2cc(-c3ccccc3)nc(NCc3ccccc3)n2)cc1,-2.6
16,NC(=O)C1CCN(C2=NC(=O)/C(=C/c3cn(-c4ccccc4)nc3-c3cc4ccccc4o3)S2)CC1,-1.4
17,CC(C)CS(=O)(=O)C1=NSC2=NC(=O)/C(=C\c3ccco3)C(=N)N21,-3.39
18,N#CCNC(=O)C(CC1CCCC1)NC(=O)OCc1ccccc1 (centres unmarked),-6.68
19,CCOc1ccc(-c2cc(=O)c3ccccc3o2)cc1,-5.26
20,O=C1c2ccccc2C(O)(c2ccccc2)N1Cc1ccco1 (centres unmarked),1.32
21,Cc1[nH]c2ccc(C(=O)NCc3ccccn3)cc2c1C,3.95
22,CCN1CCCC1CNC(=O)CCn1cnc2onc(-c3ccc(F)cc3)c2c1=O (centres unmarked),-2.34
23,Cc1c(/C=C/c2nc3ccccc3c(=O)n2C)c2ccccc2n1C,2.65
24,CCOc1ccc(NC(=O)C2CCCCC2)cc1,-3.57
25,CCCCOc1ccc(C(=O)/N=c2\c(C(=O)OCC)cc3c(=O)n4ccccc4nc3n2C)cc1,-0.363

row,SMILES,% Inhibition @ 10 uM [%]
1,Cc1nc2ccccc2nc1N1CCNCC1,0.51
2,Fc1ccc(-n2ncc3c(NCc4ccc5c(c4)OCO5)ncnc32)cc1,2.07
3,Cc1ccc(CNc2oc(COc3ccccc3)nc2C#N)cc1,-7.55
4,O=C(Nc1ccc(N2CCOCC2)cc1)c1cnsn1,-2.76
5,COc1ccc(-c2c(Cc3ccccc3)nn3c(O)cc(C)nc23)cc1,-5.28
6,CCc1ccc(-c2csc(NC(=O)c3cccnc3)n2)cc1,-1.04
7,COc1cc(C2C3=C(O)CC(C)(C)CC3=NC(C)=C2C(=O)Nc2ccccn2)ccc1O (centres unmarked),-4.7
8,CCc1ccc(N2CC(C(=O)Nc3cccc(Cl)c3C)CC2=O)cc1 (centres unmarked),-1.32
9,C=CCN1C2=NCCN2c2ccccc21,1.54
10,Cc1cc(O)c2c(C)nc(-c3ccccc3)nc2n1,-3.42
11,CC(C)C[C@H](NC(=O)c1cncc(N2CCOCC2)n1)C(=O)NCC#N,-6.98
12,CCOC(=O)C1=C(C)N(CCO)C(=O)NC1c1cccc(O)c1 (centres unmarked),0.503
13,CCOC(=O)C1CCN(CC(C)c2ccccc2)CC1 (centres unmarked),-6.62
14,Cc1cccc(-n2c(S)nnc2CCN2CCN(C)CC2)c1,2.6
15,Cn1c(=O)c2c(nc3n2CC(C24CC5CC(CC(C5)C2)C4)=NN3Cc2ccccc2)n(C)c1=O,-3.04
16,Cc1ccc(S(=O)(=O)N(C)c2ccccc2N(C)S(=O)(=O)c2ccc(C)cc2)cc1,0.968
17,CCOC(=O)c1c(NC(=O)CSc2n[nH]c(-c3ccncc3)n2)sc(C)c1C,4.61
18,NS(=O)(=O)c1ccc(CCNc2nc3c(-c4cccc(Cl)c4)nnn3c3ccccc23)cc1,-2.92
19,CN(C)c1ccc(C2C(C#N)=C(N)N(c3ccc(Cl)cc3)C3=C2C(=O)CCC3)cc1 (centres unmarked),4.39
20,COc1ccc(NS(=O)(=O)c2ccc(NC(=O)COc3cccc(C)c3)cc2)cc1,1.86
21,O=C(C1=C(O)C(=O)N(CCCn2ccnc2)C1c1cccc(Cl)c1)c1cc2ccccc2o1 (centres unmarked),-8.89
22,Cc1cc(C)c2c(n1)SCC(=O)N2CC(=O)NCCCc1ccccc1,4.02
23,CCOC(=O)N1CCN(C(=O)C2CCCN2S(=O)(=O)c2cccc3nsnc23)CC1 (centres unmarked),2.93
24,COc1ccc(N(CC(=O)NCc2ccccc2Cl)S(C)(=O)=O)c(OC)c1,11.6
25,COc1cccc(CN2CCN(Cc3ccccc3F)CC2)c1,-7.93

row,SMILES,% Inhibition @ 10 uM [%]
1,CCCCOc1ccc(C2c3c(oc4ccc(F)cc4c3=O)C(=O)N2CCCN(C)C)cc1 (centres unmarked),3.93
2,CCc1cc2c(cc3c(=O)n(CC(=O)N4CCc5ccccc5C4)nc(CC)n32)s1,-1.7
3,O=C(C1CCCN(S(=O)(=O)c2cccc3nsnc23)C1)N1CCN(c2ccccn2)CC1 (centres unmarked),-4.69
4,COc1ccc(Cl)cc1NS(=O)(=O)c1ccc(OC)c(Cl)c1Cl,-9.6
5,CC1(C)CC(=O)C(/C=N/Cc2ccc3c(c2)OCO3)=C(O)C1,-2.87
6,O=C(O)c1cccc(NC(=O)c2cccc(S(=O)(=O)N3CCc4ccccc43)c2)c1,-0.622
7,CC(C)(C)NCC(O)Cn1c2ccccc2c2ccccc21 (centres unmarked),5.03
8,Cc1onc(-c2ccccc2Cl)c1C(=O)NCCCN1CCOCC1,3.01
9,Cc1nn(Cc2ccc(C(=O)NCc3ccc(F)cc3)o2)c(C)c1Cl,-1.37
10,O=C(CCN1CCN(c2ccccc2)CC1)Nc1ccc(OCc2ccccc2)cc1,-1.89
11,COC(=O)c1sc(-c2ccccc2)cc1NC(=O)c1ccc(Br)o1,-3.96
12,C=CCNC(=O)c1sc2nc(C)cc(C)c2c1NC(=O)c1ccccc1Cl,-5.96
13,Cc1ccc(S(=O)(=O)/C(C#N)=C/C2=Cc3ccccc3OC2)cc1,-1.33
14,CC(=O)N[C@H]1[C@H](Oc2ccc3c(C)cc(=O)oc3c2)O[C@H](CO)[C@@H](O)[C@@H]1O,-4.51
15,CCN1CCN(C(=O)c2cnn(-c3ccc(C)c(C)c3)c2C2CCN(C(=O)OC(C)(C)C)CC2)CC1,4.76
16,COC(=O)C1CCCN1Cc1ccc(F)c(F)c1 (centres unmarked),-1.41
17,CCOc1ccc(Br)cc1C1N2CC3(C)CN1CC(CC)(C2)C3=O (centres unmarked),-1.31
18,COCCCNC(=O)Cc1coc2ccc3ccccc3c12,2.01
19,CSC1=C(C#N)C(c2ccc(Cl)cc2)C(C(C)=O)=C(C)N1 (centres unmarked),4.33
20,CC(CCc1ccccc1)NC(=O)C1CCN(c2nnc(-n3cccc3)s2)CC1 (centres unmarked),2.76
21,COc1ccc(C(=O)NCc2cccc3ccccc23)c(OC)n1,1.88
22,O=C1c2ccccc2C(=O)N1OCCCCNC(=O)C(F)(F)F,4
23,CCC(C)NC(=O)c1ccccc1NC(=O)c1ccc(Cl)cc1 (centres unmarked),2.98
24,Clc1ccc(N2N=C(c3ccccc3)CC2c2ccccc2)cc1 (centres unmarked),-9.87
25,Cc1cccc(C(=O)N[C@@H](CC2CCCCC2)C(=O)NCC#N)c1,1.35

row,SMILES,% Inhibition @ 10 uM [%]
1,O=C(Nc1ccc(Cl)cc1)Nc1ccccc1C(=O)Nc1ccccc1,-1.75
2,O=C1ON=C(c2ccc(Cl)cc2)/C1=C\c1ccc2c(c1)OCO2,-8.79
3,NC(=O)C1CCCN(Cc2ccc(F)c(Br)c2)C1 (centres unmarked),-5.65
4,Cc1cccn2c(=O)c3cc(C(=O)NCCN4CCOCC4)n(C)c3nc12,-2.52
5,CN(c1c(-c2ccccc2)c(=O)c1=O)C1CCCCC1,-9.49
6,CCOC(=O)c1cc(-c2ccc(C)cc2)n(CCC(=O)Nc2nc(C)cs2)c1C,0.0579
7,O=C(CCCOc1ccc(Cl)cc1Cl)N1CCN(C(c2ccccc2)c2ccccc2)CC1,4.61
8,COCCNC(=O)c1c(NC(=O)c2cc(=O)c3cc(C)ccc3o2)sc2c1CCCC2,-5.31
9,CCC1=C(c2ccc(C)cc2)S(=O)(=O)N=C1N1CCC(C(=O)NCCN2CCN(C)CC2)CC1,5.13
10,O=C(COc1ccccc1F)Nc1nc(-c2ccc(S(=O)(=O)N3CCCCCC3)cc2)cs1,0.231
11,COc1ccc(OCCCCN2CCCC2)cc1,-8.01
12,Fc1ccc(-c2noc3ncnc(NCCc4ccsc4)c23)cc1,-5.55
13,CCOC(=O)c1cnc(Nc2nc3ccccc3o2)nc1-c1ccccc1,3.93
14,c1ccc2c(CN3CCSCC3)c[nH]c2c1,-6.21
15,O=C(O)c1ccc(NC(=O)c2ccccc2C(=O)O)cc1,-1.29
16,CCC1(CC(=O)c2ccccc2)C(=O)NC(=O)NC1=O,-4.96
17,N#C/C(=C\Nc1cc(Cl)ccc1O)c1nc2cc(Cl)ccc2o1,-1.37
18,CC(C)(C)C1CCC(NCC2CCCO2)CC1 (centres unmarked),0.217
19,COc1cccc(N(CC(=O)Nc2cccc(C)c2)S(=O)(=O)c2ccccc2)c1,3.86
20,N#CCCOc1cccc(OCCC#N)c1,-3.66
21,COc1cc(Br)ccc1NC(=O)c1cccc2c1-c1ccccc1C2=O,3.43
22,O=C(/C=C/c1ccco1)NCCN1CCOCC1,2.6
23,O=C(CCCN1C(=O)c2ccccc2C1=O)NCc1nc(-c2ccccc2)no1,-4.82
